This is one part of the list.
T1: UNK ZnF1-3 (human, UniProt Q9C0B0 31-174)
T1 sequence: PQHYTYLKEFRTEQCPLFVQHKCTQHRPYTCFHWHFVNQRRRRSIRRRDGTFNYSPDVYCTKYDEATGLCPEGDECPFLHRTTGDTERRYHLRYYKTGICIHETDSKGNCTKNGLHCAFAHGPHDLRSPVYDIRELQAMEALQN

B1: chr12:42180722:42180723:-_ENSMUSG00000036295_ENSMUST00000043884|mus_hu|mus_mus_mus_hu_True|68_68 (ssRNA)
RNA: GGGAGUUCUACAGUCCGACGAUCCUGUAGGAGAAGAAUCUGUGUGUUAGCUGGCAAUCUGGCUGGGAAGUUUAAAAGACCUAAAUCAUUACAAUCCACUGUAGAUGCUUCCAUAUAAAUGGAUCUGGGUGUAAACCAAGGCCUCAACAGAGGAUUGAGCAUCA
B2: chr1:135029974:135029975:+_ENSMUSG00000046062_ENSMUST00000052529|mus_hu|FALSE|FALSE (ssRNA)
RNA: GGGAGUUCUACAGUCCGACGAUCACGACAGCCUUUCUCAUUUUCCCCUGAUGUUUGAAAAGGAGCCUUAAAAUUUAAAGGGUUGUAGGGGUCAUCAGAAUUACAGAAUGAGUUCCACAGUUUGAGACUCUCUGCUUCAUCUGCCAACAGAGGAUUGAGCAUCA
B3: 153057806_153057926_1113_3pUTR_ENSMUSG00000051413_ENSMUST00000056924|mouse|control|control (ssRNA)
RNA: GGGAGUUCUACAGUCCGACGAUCAGGGAUGUGGGCACCAUACAUACCCAUGGGCAACAUGCCAGGAAAGGCCUUAGCCCCCAUCACGUCCCGAGAGGCCAUGCAAAGCACAGGGCUCAGCUCUUCCUUUACACUGACUGUAGACAACAGAGGAUUGAGCAUCA
B4: 139369889_139370009_2192_CDS_ENSG00000148396_ENST00000313050|human|control|control (ssRNA)
RNA: GGGAGUUCUACAGUCCGACGAUCCCACAGAGUCGUUGCUGGGCUCUCACACUUCACGGGCCCCUGGGUCCUGGCUGAAGGCCUCUUCUCGGGUGCUGGAUACACAGUAUCCAAGGGCGGUGCCCCUGCGUGCGGAAGCAUGUGCAACAGAGGAUUGAGCAUCA
B5: chr10:33190432:33190433:-_ENSG00000150093_ENST00000302278|hu_mus|hu_hu_hu_mus_True|8_58 (ssRNA)
RNA: GGGAGUUCUACAGUCCGACGAUCUACAUUUUCCAAACCUGCAUGUGAAUAAAACCCUGGCCACAGAGCCCCAAAACUACCUAACUGUGACUAAGAUGCUGCUGCUGUGAGCUUGGUGUUGCAAAAUUUUGCACGGGAGGAUUCCAACAGAGGAUUGAGCAUCA
B6: chr11:74490848:74490849:-_ENSMUSG00000020745_ENSMUST00000021091|mus_hu|FALSE|FALSE (ssRNA)
RNA: GGGAGUUCUACAGUCCGACGAUCACAGAUAGCAGAAAGAAAAACAGGAAUUAAUAAUCCAACAUAAAAUGACACUGUCAACUAUUCAGUUUAGUGCCCUAGUUCAAUUGAUUCAACUUCUGCCUUCUUAGGCCUGGUGUGACCCAACAGAGGAUUGAGCAUCA
B7: chr1:59768832:59768833:+_ENSMUSG00000026020_ENSMUST00000027174|mus_mus|motif|central (ssRNA)
RNA: GGGAGUUCUACAGUCCGACGAUCCAUACUGACUCACAACCAUCCAGGUUAAACAAUGGAUUCUUUUGAACUCCACAGACGGAGGUGUAUAAGCAGUACACAUAUACACAUGCAAGAAAAACAAGAGACACAUAGACACACAUGCAACAGAGGAUUGAGCAUCA
B8: chr7:135612270:135612271:-_ENSG00000105887_ENST00000393085|hu_mus|hu_hu_hu_mus_False|28_78 (ssRNA)
RNA: GGGAGUUCUACAGUCCGACGAUCGUUUUUUUCUGAGAUGUUAAAUAGUACUUCAGUAACAAAACUUACUUAACCUUUUAUUAAUGCGUGUUGUACCAAAAGCAGACCAUGGUUUUACAUUUAUUCAAAAAUAUUAACAUUAAGCAACAGAGGAUUGAGCAUCA
B9: 3797199_3800170_768_3pUTR_ENSG00000110713_ENST00000324932|human|control|control (ssRNA)
RNA: GGGAGUUCUACAGUCCGACGAUCGUGGUAUUUGUGGUUCCAAAGAGUCCUCCACUGCUAGUACUGGUUCCAAAAUUGCCAAAGCCAGUUGGUUUAUUUUGUGCAAAGGCAUUGUUUUGGGAUGAGAAGAGACUGGUCCCUGUGCAACAGAGGAUUGAGCAUCA
B10: chr17:57746147:57746148:+_ENSG00000141367_ENST00000269122|hu_mus|motif|central (ssRNA)
RNA: GGGAGUUCUACAGUCCGACGAUCUUGCCCAGUCUUGCAAGCCGCCUGAAUAUAUUUAAAGUGCACAUCUGGGUCCUGACGGAAGUUAACAAUGGACCCCAGAAAAUAAAAGAGACCUUCAAAACUCUUGAAUGAUUCAAAGAGCAACAGAGGAUUGAGCAUCA
B11: chr1:115268999:115269000:-_ENSG00000009307_ENST00000339438|hu_mus|motif|central (ssRNA)
RNA: GGGAGUUCUACAGUCCGACGAUCUAAAAGUCUCACGCAAGUUGCAAUCUGCUGUCCAGGCCUCUGUUUGUCACUAAUACGGAAUUCAACCUUAUCUCCUAUUUGAGGAGAAGUAGAUCCUUCCACAUCCUUGGCUUGAAAAGCCAACAGAGGAUUGAGCAUCA
B12: chr8:24034084:24034085:+_ENSMUSG00000031540_ENSMUST00000044331|mus_mus|FALSE|FALSE (ssRNA)
RNA: GGGAGUUCUACAGUCCGACGAUCGUUCCCAUCAACCUCAAAGACAGAAAUAUUAUUCUUUCGGUAAAUCUCAUUGGCAGGAGGAUGGAACCAACCACAUUUCUUCAUGUGCUGCUGUAGAAUAGUUCUACUUUUCAUAUAUUUCAACAGAGGAUUGAGCAUCA
B13: chr4:38702237:38702238:+_ENSG00000109787_ENST00000261438|hu_hu|FALSE|FALSE (ssRNA)
RNA: GGGAGUUCUACAGUCCGACGAUCUAAGCAGAAAGAUUAUUUUGACCCUCUAACACUAAGUACAUAACAGAAAAAAAAGUGCUAGUAUUUGUAAAACAAUAUUGUUGUAGCCCUCGUUUAAUGCAUGUAAAGAUGGCUUUGUAACAACAGAGGAUUGAGCAUCA
B14: chr1:220276048:220276049:+_ENSG00000067704_ENST00000302637|hu_hu|hu_hu_hu_mus_True|28_58 (ssRNA)
RNA: GGGAGUUCUACAGUCCGACGAUCGCAAAUUGCCUGGUUGGCGGGAAUUGUCCAAGGCUGGGUGGUCCAAACUAAAAUACUAACAGGGGAUGAGGCAUCUGUAAGAGAUGCCAAUUUCGGAGGAGGUCUCAGGAGGGGGAAUCUCAACAGAGGAUUGAGCAUCA
B15: chr15:12753431:12753432:-_ENSMUSG00000022195_ENSMUST00000057256|mus_hu|motif|central (ssRNA)
RNA: GGGAGUUCUACAGUCCGACGAUCUGGAUGUGAGUCGAAAUGUAAAAAACUUACAUUACUGGCAGGAAGAUGCUUUGAGCCGGUGGCCCGGUAUAUAAAGGGUAGAACCUCCUGAUGAUCCUCCACCACCCACACUGGGAGCUUCAACAGAGGAUUGAGCAUCA
B16: 73041835_73044820_1103_3pUTR_ENSMUSG00000016382_ENSMUST00000114059|mouse|control|control (ssRNA)
RNA: GGGAGUUCUACAGUCCGACGAUCCAUACUUUCGGCUCUCUUUAAAUCAUCAGUUUCAUUGAAACCUGACAUGUUAAUAUCUAUCCGUGGCUCCCCUUCUUUCUGUCCCUUCGGUGCGAUUUGAUUGAGCAGAUGGAAAUAGGCCAACAGAGGAUUGAGCAUCA
B17: 107693362_107693482_2543_CDS_ENSMUSG00000032582_ENSMUST00000035201|mouse|control|control (ssRNA)
RNA: GGGAGUUCUACAGUCCGACGAUCGUAAGUGUGACCCAUGGGGCCAGUCCUGUUCUUGAUGAUGCGGACAUUGGCAGUAGUGAGAUGCACGUAGGGCUCCAGCACUUCGACUAUCACUUCGGGUGGAGUGGAACGAUAGAUACGCAACAGAGGAUUGAGCAUCA
B18: chr5:172341789:172341790:+_ENSG00000113719_ENST00000393784|hu_hu|FALSE|FALSE (ssRNA)
RNA: GGGAGUUCUACAGUCCGACGAUCGGGGACCUUGUUGAUGCUGAACUGCCCCUCGAAGCGGCAGCCUGCCCCAUUGUUCAGCGGGAUCUUCAUGGAGUUGUCGAUGUGGCCCACUUCGUGCCUGCCCAUCUCAUCCUGAAUGUCCAACAGAGGAUUGAGCAUCA
B19: 36140214_36142007_1440_3pUTR_ENSG00000100320_ENST00000405409|human|control|control (ssRNA)
RNA: GGGAGUUCUACAGUCCGACGAUCUGGGGGGCUGUCCCAUUUGCAGGGGUCUCACGUCACUUCAGUAGGGGGCAAAUCGGCUGUAGCCACCUCGGUAUAAACUCGCCACAGCGCCAACUCCAUAGCUAGCGGCAGGGGCAAGGGCAACAGAGGAUUGAGCAUCA
B20: chr13:36158134:36158135:+_ENSG00000172915_ENST00000537702|hu_mus|FALSE|FALSE (ssRNA)
RNA: GGGAGUUCUACAGUCCGACGAUCGGUUGUGAAUGGCUCAAUCCGAACAAGCCAUGACAGGGCGGAAGUCGCCGUUGAGUAAUGUGUGUUGUAGUGGAAGGGUGGGCUUUGAUCCUCCUCCCAUGUCUCAUAGCGCUCUGCGUACAACAGAGGAUUGAGCAUCA
B21: chr4:40633508:40633509:-_ENSMUSG00000028411_ENSMUST00000129021|mus_hu|FALSE|FALSE (ssRNA)
RNA: GGGAGUUCUACAGUCCGACGAUCGCUGCAUGUUUUAAUUUAGGAAAUGAGUAGAAGUUCACAAGCAACCCAGAAUAGGUGCCAGCAGUUUGCUCCAGUGGGCCACACCACAGCAGCAGCUCAGGCUCUGCAGAAUCACUGUGUCAACAGAGGAUUGAGCAUCA
B22: 46776515_46780490_4841_CDS_ENSG00000175216_ENST00000415402|human|control|control (ssRNA)
RNA: GGGAGUUCUACAGUCCGACGAUCGUUGUAGAUGAGUCUUAGCUGCAUAAAAGUGGCUAUCAGAAACUGAUCAAUAUGGCCGGACAUGGCUUCAGCUUUGUCUUCCUGUCUCAGGACCUCAUCGAUCUGUGUCAGAGCUUGGAUCAACAGAGGAUUGAGCAUCA

Target: T1, UNK ZnF1-3
Assay: nsRBNS (natural sequence RNA bind-n-seq); RBNS binding buffer (assumed for nsRBNS): 25 mM Tris pH 7.5, 150 mM KCl, 3 mM MgCl2, 0.01% Triton X-100, 500 ug/ml BSA, 20 U/ml SUPERase-In, 4 C; UNK is unkempt and MSI1 is Musashi-1; names of the RNAs are library labels; protein concentration not given here; high values mean tight binding

Binder | binding signal [enrichment R]
B1 | 1.25
B2 | 1.02
B3 | 0.897
B4 | 0.68
B5 | 1.32
B6 | 0.773
B7 | 1.38
B8 | 0.897
B9 | 0.741
B10 | 1.72
B11 | 0.719
B12 | 0.895
B13 | 0.786
B14 | 2.34
B15 | 1.37
B16 | 1.06
B17 | 1.36
B18 | 0.54
B19 | 0.946
B20 | 0.748
B21 | 1.45
B22 | 0.911

— article PMC12136788
